# Among all 410,000 compounds or so, about 6,400 (1.6%) were called active. The inconclusive results got no clear call from the source; some entries with a clear call stand among them for comparison. Calls come from the whole dose curve; as a rule, active = well fitted inhibition curve with a large enough effect; inconclusive = small, poorly fitted or top-dose-only effect; inactive = no such curve, though single readings can be large or run the other way. Potencies of inconclusive entries are left out as doubtful fits.
# Molecular target: Glucagon-like peptide 1 receptor (Homo sapiens) (UniProt P43220)
# Chain of UniProt P43220 (P43220 whole entry, looked up): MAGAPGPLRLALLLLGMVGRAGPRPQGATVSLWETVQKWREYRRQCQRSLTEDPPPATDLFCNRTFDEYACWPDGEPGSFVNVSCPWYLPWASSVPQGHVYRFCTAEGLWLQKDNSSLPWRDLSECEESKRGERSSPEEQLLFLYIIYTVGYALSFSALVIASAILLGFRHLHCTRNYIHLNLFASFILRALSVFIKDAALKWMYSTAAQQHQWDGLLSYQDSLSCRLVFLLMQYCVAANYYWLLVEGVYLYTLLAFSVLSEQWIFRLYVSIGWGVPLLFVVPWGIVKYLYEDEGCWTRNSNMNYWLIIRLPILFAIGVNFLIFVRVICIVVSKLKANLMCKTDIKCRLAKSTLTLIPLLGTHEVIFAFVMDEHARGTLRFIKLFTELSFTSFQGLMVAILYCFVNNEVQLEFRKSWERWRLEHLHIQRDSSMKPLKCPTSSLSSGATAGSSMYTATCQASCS
# Assay: qHTS of GLP-1 Receptor Inverse Agonists (Inhibition Mode); note: nearly all actives have a fitted effect of over 55% in size
# Conditions: HEK293 GLP-1R CRE-luciferase, luminescence, 24 h, GLP-1R form is constitutively active; series mostly up to 38.3 µM
# Summary of the method: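 GLP-1R inverse agonism mode: basal reporter luminescence in engineered HEK293 cells measured after one day of compound exposure at 37 deg C, with a 12 min room-temperature detection step.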
# Potency is the fitted concentration of half-maximal effect; tags give direction and shape of the fitted curve.
row,SMILES,Potency
1,CCOc1ccccc1NC(=S)N1CCN(c2ccccc2F)CC1,"inconclusive [inhibitor, partial curve, poor fit]"
2,Cc1[nH]n(C(N)=S)c(=O)c1N=Nc1ccc(S(=O)(=O)N2CCCCCC2)cc1,inactive
3,CCC(=O)Nc1ccccc1-c1nc2ccccc2n(C(C)C(=O)Nc2ccc(OC)cc2)c1=O (configuration not stated),inactive
4,Cc1ccccc1-c1cccc([C@@H]2C[C@H]3[C@H](CON3C)CN2C(=O)CCc2ccccc2)c1,"inconclusive [inhibitor, single point]"
5,O=C(Nc1ccc(Br)cc1)c1cccc(OC(=S)N2CCOCC2)c1,"inconclusive [inhibitor, partial curve, poor fit]"
6,CCN(CC)C(=O)C1=C(C)N(Cc2ccc(F)cc2)C(=O)C(CC(=O)NC(c2ccccc2)c2ccccc2)C1 (configuration not stated),active: 11.2 µM
7,O=C1C(Cc2ccccc2)Nc2ncnc(N3CCc4ccccc4C3)c2N1Cc1ccc(Cl)cc1 (configuration not stated),"inconclusive [inhibitor, partial curve, poor fit]"
8,COc1ccc(C)cc1S(=O)(=O)NCC(c1ccc(N(C)C)cc1)N1CCc2ccccc21 (configuration not stated),inactive
9,CCOC(=O)c1c(-c2ccc(-c3ccccc3)cc2)csc1NC(=O)c1cccc(N2C(=O)CCC2=O)c1,inactive
10,CC(C)(C)c1ccc(-c2nnc3sc(-c4ccccn4)nn23)cc1,"inconclusive [inhibitor, partial curve, poor fit]"
11,COc1ccc(/C=C(/CC(=O)NCc2ccc(Cl)cc2)c2nc3ccccc3s2)cc1,"inconclusive [inhibitor, single point]"
12,CCc1ccc(OCC(=O)Nc2ccc(-c3cc4ccccc4oc3=O)c(OC)c2)cc1,"inconclusive [inhibitor, partial curve, poor fit]"
13,OC(COc1ccc2ccccc2c1)Cn1ccnc1 (configuration not stated),"inconclusive [inhibitor, partial curve, poor fit]"
14,Cc1ccc(C)c(N2CCN(C(=O)c3cc4sccc4n3C)CC2)c1,"inconclusive [inhibitor, single point]"
15,Cc1ccc(Cl)cc1NC(=O)CCCN1C(=O)CCn2nc(-c3cn(C)c4ccccc34)cc21,"inconclusive [inhibitor, partial curve, poor fit]"
16,Cc1nc(N2CCC(C)CC2)c2c(C)c(C(=O)Nc3ccccc3C(F)(F)F)sc2n1,inactive
17,COc1ccc(-c2c(-c3ccccc3OC)sc3ccccc23)cc1C=O,"inconclusive [inhibitor, partial curve]"
18,COc1ccc(OC)c(CCNC(=O)Cn2cccc2C(=O)c2ccccc2)c1,"inconclusive [inhibitor, partial curve, poor fit]"
19,CC1(C)C=Cc2c(ccc3c2OC[C@@H](c2ccc(O)cc2O)C3)O1,"inconclusive [inhibitor, single point]"
20,COc1ccccc1C(=O)Nc1cc(-c2ccc(C)cc2)no1,"inconclusive [inhibitor, single point]"
21,Cc1ccc(S(=O)(=O)Nc2cc(C(C(=O)OC(C)C)C(=O)C(F)(F)F)c(O)c3ccccc23)c(C)c1 (configuration not stated),"inconclusive [inhibitor, single point]"

row,SMILES,Potency
1,CC(C)(C)OC(=O)N1CCC[C@H]1c1nnc(SCc2ccc(Cl)cc2)o1,"inconclusive [inhibitor, partial curve, poor fit]"
2,CC(C)(C)c1ccc(C(=O)NNC(=O)Cc2ccccc2)cc1,inactive
3,O=C(Nc1ccc2c(c1)OCO2)c1ccccc1SCC(=O)N1CCCC1,inactive
4,CCN(CC)C(=O)c1cccc(NC(=O)CC23CC4CC(CC(C4)C2)C3)c1,"inconclusive [inhibitor, single point]"
5,Cc1ccc(CCNC(=O)C23CN(Cc4ccccc4)CC2C(c2cccc([N+](=O)[O-])c2)=NO3)cc1 (configuration not stated),"inconclusive [inhibitor, single point]"
6,CC(C)N(Cc1nc(-c2ccccc2)no1)C(=O)c1ccc(Br)o1,"inconclusive [inhibitor, full curve, poor fit]"
7,Cc1c(OCC(=O)N(C)C)ccc2c3c(c(=O)oc12)CCCCC3,inactive
8,COc1ccc(-c2nnn(CCC(=O)O)n2)cc1,inactive
9,CC(C)N(CCCNC(=O)C1CCN(C(=O)c2cc3sccc3n2C)CC1)Cc1ccccc1,"inconclusive [inhibitor, partial curve, poor fit]"
10,CC(C)(C)c1ccc(-n2ncc3c2CCCC3NC(=O)CN2CCOC2=O)cc1 (configuration not stated),"inconclusive [inhibitor, full curve, poor fit]"
11,Nc1nonc1-c1nc2ccccc2n1CC(=O)N/N=C\c1ccc(-c2ccc(Cl)cc2)o1,active: 10 µM
12,Cc1cccc(Nc2nc(N)c([N+](=O)[O-])c(NCc3ccccc3)n2)c1,"inconclusive [inhibitor, single point]"
13,CCOC(=O)c1c(NC(=O)Cc2ccccc2)sc2c1CCN(CC)C2,"inconclusive [inhibitor, single point]"
14,COc1ccc(CCC(=O)NCc2nc3cccnc3n2Cc2ccccc2)cc1,inactive
15,Cn1c(CO)cnc1S(=O)(=O)Cc1c(Cl)cccc1Cl,inactive
16,O=C(Cn1cccc1C(=O)c1ccccc1)NCCc1ccccc1,"inconclusive [inhibitor, single point]"
17,O=C1CSc2ccccc2N1Cc1ccccc1F,inactive
18,CC(=O)Nc1cc(-c2ccccc2)nn1Cc1cccc(Cl)c1,"inconclusive [inhibitor, single point]"
19,O=C(Cc1ccsc1)Nc1ccc(S(=O)(=O)C(F)F)cc1,"inconclusive [inhibitor, single point]"
20,COc1ccc(CN2C(=O)c3cccc4cccc2c34)cc1F,"inconclusive [inhibitor, single point]"
21,CC(=O)c1cccc(Nc2nc(-c3ccccc3)cs2)c1,"inconclusive [inhibitor, partial curve, poor fit]"
